# Measurements reported in the supplement of paper PMC10037445.
# In all, about 2,900 compounds were measured (“IRF Lucia reporter activity, fold change vs agonist alone”: median about 0.9, highest 2% from about 2.8 on). Some of the results follow.
# Experiments:
# [1] = system: RAW-Dual; experiment: IRF Lucia reporter activity, fold change vs agonist alone; cytotoxicity flag (confluency mask): not cytotoxic; higher = enhanced IRF activity
# Method in brief: (§1)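 RAW-Dual macrophages (50,000 cells/well in DMEM, 384-well plates) received 50 nL of library stock by pin tool, then a PRR agonist 1 h later, and were kept at 37 °C, 5% CO2. After 20 hours, supernatant was read for IRF by QuantiLuc luminescence and for NF-κB by QuantiBlue absorbance at 620 nm. Reporter activity is fold change over agonist-alone wells. Cytotoxic wells had IncuCyte confluency below 70% of agonist controls in both mask sets.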
# [2] = system: RAW-Dual; experiment: IRF Lucia reporter activity, fold change vs agonist alone; higher = enhanced IRF activity; settings: agonist: MPLA (TLR4) […]
# Method in brief: as §1
# [3] = system: RAW-Dual; experiment: IRF Lucia reporter activity, fold change vs agonist alone; cytotoxicity flag (confluency mask): cytotoxic (confluency <70% of control); higher = enhanced IRF activity
# Method in brief: as §1
# [4] = agonist: 3'3'-cGAMP (STING) 10 ug/mL
# [5] = library stock concentration (final ~1000-fold dilution): 10 mM, cytotoxicity flag (confluency mask): not cytotoxic
# [6] = library stock concentration (final ~1000-fold dilution): 10 mM, cytotoxicity flag (confluency mask): cytotoxic (confluency <70% of control)
# [7] = library stock concentration (final ~1000-fold dilution): 10 mM water, cytotoxicity flag (confluency mask): not cytotoxic
structure (smiles),measurement,setting,value
N#C/C(=C\c1cn(-c2ccccc2)c2ccccc12)C(=O)O (library stock concentration (final ~1000-fold dilution): 10 mM),IRF Lucia reporter activity,[1]; [4],0.901
same,IRF Lucia reporter activity,[1]; agonist: LPS (TLR4) 0.1 ug/mL,1.26
N#C/C(=C\c1cn(-c2ccccc2)c2ccccc12)C(=O)O,IRF Lucia reporter activity,[2]; [5],0.957
Brc1ccc(C2CN3CCSC3=N2)cc1.O=C(O)C(=O)O (centres undefined),IRF Lucia reporter activity,[2]; [5],1.03
Brc1ccc(C2CN3CCSC3=N2)cc1.O=C(O)C(=O)O (centres undefined) (library stock concentration (final ~1000-fold dilution): 10 mM),IRF Lucia reporter activity,[1]; [4],1.03
same,IRF Lucia reporter activity,[1]; agonist: LPS (TLR4) 0.1 ug/mL,0.728
CCN(CC)CCNC(=O)c1cc(Cl)c(N)cc1OC (library stock concentration (final ~1000-fold dilution): 10 mM),IRF Lucia reporter activity,[1]; [4],0.982
same,IRF Lucia reporter activity,[1]; agonist: LPS (TLR4) 0.1 ug/mL,1.09
CCN(CC)CCNC(=O)c1cc(Cl)c(N)cc1OC,IRF Lucia reporter activity,[2]; [5],0.96
CC(C)c1nc(CN(C)C(=O)NC(CCN2CCOCC2)C(=O)NC(CCC(Cc2ccccc2)NC(=O)OCc2cncs2)Cc2ccccc2)cs1 (centres undefined) (library stock concentration (final ~1000-fold dilution): 10 mM),IRF Lucia reporter activity,[1]; [4],0.572
same,IRF Lucia reporter activity,[1]; agonist: LPS (TLR4) 0.1 ug/mL,0.956
CC(C)c1nc(CN(C)C(=O)NC(CCN2CCOCC2)C(=O)NC(CCC(Cc2ccccc2)NC(=O)OCc2cncs2)Cc2ccccc2)cs1 (centres undefined),IRF Lucia reporter activity,[2]; [5],0.99
CC(C)C1C(=O)NC(CCCNC(=N)N)C(=O)NCC(=O)NC(CC(=O)O)C(=O)NC(Cc2ccccc2)C(=O)N1C.O=C(O)C(F)(F)F (centres undefined),IRF Lucia reporter activity,[2]; [5],1.15
CC(C)C1C(=O)NC(CCCNC(=N)N)C(=O)NCC(=O)NC(CC(=O)O)C(=O)NC(Cc2ccccc2)C(=O)N1C.O=C(O)C(F)(F)F (centres undefined) (library stock concentration (final ~1000-fold dilution): 10 mM),IRF Lucia reporter activity,[1]; [4],1
same,IRF Lucia reporter activity,[1]; agonist: LPS (TLR4) 0.1 ug/mL,1.17
COC1/C=C/OC2(C)Oc3c(C)c(O)c4c(O)c(c(/C=N/N5CCN(C)CC5)c(O)c4c3C2=O)NC(=O)/C(C)=C/C=C/C(C)C(O)C(C)C(O)C(C)C(OC(C)=O)C1C (centres undefined),IRF Lucia reporter activity,[2]; [5],0.809
COC1/C=C/OC2(C)Oc3c(C)c(O)c4c(O)c(c(/C=N/N5CCN(C)CC5)c(O)c4c3C2=O)NC(=O)/C(C)=C/C=C/C(C)C(O)C(C)C(O)C(C)C(OC(C)=O)C1C (centres undefined) (library stock concentration (final ~1000-fold dilution): 10 mM),IRF Lucia reporter activity,[1]; [4],1.2
same,IRF Lucia reporter activity,[1]; agonist: LPS (TLR4) 0.1 ug/mL,1.01
COS(=O)(=O)[O-].COc1cccc2c1nc1ccccc1[n+]2C (library stock concentration (final ~1000-fold dilution): 10 mM),IRF Lucia reporter activity,[3]; [4],0.0356
same,IRF Lucia reporter activity,[3]; agonist: LPS (TLR4) 0.1 ug/mL,0.453
CCN(CC)CCNc1ccc(C)c2sc3ccccc3c(=O)c12 (library stock concentration (final ~1000-fold dilution): 10 mM),IRF Lucia reporter activity,[3]; [4],0.296
same,IRF Lucia reporter activity,[3]; agonist: LPS (TLR4) 0.1 ug/mL,0.936
CCN(CC)CCNc1ccc(C)c2sc3ccccc3c(=O)c12,IRF Lucia reporter activity,[2]; [6],0.978
O=C(O)c1ccc(/C=C2/SC(=S)N(Cc3cccc(C(F)(F)F)c3)C2=O)cc1,IRF Lucia reporter activity,[2]; [5],0.994
O=C(O)c1ccc(/C=C2/SC(=S)N(Cc3cccc(C(F)(F)F)c3)C2=O)cc1 (library stock concentration (final ~1000-fold dilution): 10 mM),IRF Lucia reporter activity,[1]; [4],1.08
same,IRF Lucia reporter activity,[1]; agonist: LPS (TLR4) 0.1 ug/mL,1.07
Cc1cc(Nc2cc(N3CCN(C)CC3)nc(/C=C/c3ccccc3)n2)n[nH]1.O=C(O)C(O)C(O)C(=O)O,IRF Lucia reporter activity,[2]; [5],0.0326
Cc1cc(Nc2cc(N3CCN(C)CC3)nc(/C=C/c3ccccc3)n2)n[nH]1.O=C(O)C(O)C(O)C(=O)O (library stock concentration (final ~1000-fold dilution): 10 mM),IRF Lucia reporter activity,[1]; [4],0.0151
same,IRF Lucia reporter activity,[1]; agonist: LPS (TLR4) 0.1 ug/mL,0.0305
NC(=O)c1cccc(-c2cc(Nc3ccc(OC(F)(F)F)cc3)ncn2)c1 (library stock concentration (final ~1000-fold dilution): 10 mM),IRF Lucia reporter activity,[1]; [4],0.725
same,IRF Lucia reporter activity,[1]; agonist: LPS (TLR4) 0.1 ug/mL,0.975
NC(=O)c1cccc(-c2cc(Nc3ccc(OC(F)(F)F)cc3)ncn2)c1,IRF Lucia reporter activity,[2]; [5],0.969
Cc1cc(C)c(CNC(=O)c2cc(-c3ccc(CN4CCOCC4)cc3)cc3c2cnn3C2CCCC2)c(=O)[nH]1,IRF Lucia reporter activity,"[2]; library stock concentration (final ~1000-fold dilution): 2 mM, cytotoxicity flag (confluency mask): not cytotoxic",1.02
Cc1cc(C)c(CNC(=O)c2cc(-c3ccc(CN4CCOCC4)cc3)cc3c2cnn3C2CCCC2)c(=O)[nH]1 (library stock concentration (final ~1000-fold dilution): 2 mM),IRF Lucia reporter activity,[1]; [4],0.533
same,IRF Lucia reporter activity,[1]; agonist: LPS (TLR4) 0.1 ug/mL,0.988
COc1ccc(Oc2cc(NCCC(F)(F)F)c3ncc(-c4ccc(C(=O)NC5CC5)c(C)c4)n3n2)c(F)c1F (library stock concentration (final ~1000-fold dilution): 10 mM),IRF Lucia reporter activity,[1]; [4],0.255
same,IRF Lucia reporter activity,[1]; agonist: LPS (TLR4) 0.1 ug/mL,1.23
NCCCC(=O)O (library stock concentration (final ~1000-fold dilution): 10 mM water),IRF Lucia reporter activity,[1]; [4],1.12
same,IRF Lucia reporter activity,[1]; agonist: LPS (TLR4) 0.1 ug/mL,0.83
NCCCC(=O)O,IRF Lucia reporter activity,[2]; [7],1.06
Cc1ccc(-c2nn(C(C)(C)C)c3ncnc(N)c23)cc1 (library stock concentration (final ~1000-fold dilution): 10 mM),IRF Lucia reporter activity,[1]; [4],0.971
same,IRF Lucia reporter activity,[1]; agonist: LPS (TLR4) 0.1 ug/mL,0.583
Cc1ccc(-c2nn(C(C)(C)C)c3ncnc(N)c23)cc1,IRF Lucia reporter activity,[2]; [5],0.665
CC(C)CC(NP(=O)(O)OC1OC(C)C(O)C(O)C1O)C(=O)NC(Cc1c[nH]c2ccccc12)C(=O)O (centres undefined) (library stock concentration (final ~1000-fold dilution): 10 mM),IRF Lucia reporter activity,[1]; [4],1
same,IRF Lucia reporter activity,[1]; agonist: LPS (TLR4) 0.1 ug/mL,0.927
CC(C)CC(NP(=O)(O)OC1OC(C)C(O)C(O)C1O)C(=O)NC(Cc1c[nH]c2ccccc12)C(=O)O (centres undefined),IRF Lucia reporter activity,[2]; [5],0.955
CCC(N)CNc1ccnc(-c2cc(-c3cnn(C)c3)ccc2O)n1.Cl.Cl (centres undefined) (library stock concentration (final ~1000-fold dilution): 10 mM),IRF Lucia reporter activity,[3]; [4],0.0123
same,IRF Lucia reporter activity,[3]; agonist: LPS (TLR4) 0.1 ug/mL,0.0754
C=CC1CC1(NC(=O)C1CC(Oc2ncc(OC)c3ccc(Cl)cc23)CN1C(=O)C(NC(=O)OC(C)(C)C)C(C)(C)C)C(=O)NS(=O)(=O)C1CC1 (centres undefined),IRF Lucia reporter activity,[2]; [6],1.03
C=CC1CC1(NC(=O)C1CC(Oc2ncc(OC)c3ccc(Cl)cc23)CN1C(=O)C(NC(=O)OC(C)(C)C)C(C)(C)C)C(=O)NS(=O)(=O)C1CC1 (centres undefined) (library stock concentration (final ~1000-fold dilution): 10 mM),IRF Lucia reporter activity,[3]; [4],1.02
same,IRF Lucia reporter activity,[3]; agonist: LPS (TLR4) 0.1 ug/mL,1.04
CC(=O)N1CCN(c2ccc(NC(=O)Cc3cnc(-c4ccnc(F)c4)c(C)c3)nc2)CC1 (library stock concentration (final ~1000-fold dilution): 10 mM),IRF Lucia reporter activity,[1]; [4],1.07
same,IRF Lucia reporter activity,[1]; agonist: LPS (TLR4) 0.1 ug/mL,0.943
CCC(Nc1ncnc2[nH]cnc12)c1oc2ccccc2c(=O)c1-c1cccc(F)c1 (centres undefined) (library stock concentration (final ~1000-fold dilution): 10 mM),IRF Lucia reporter activity,[1]; [4],0.805
same,IRF Lucia reporter activity,[1]; agonist: LPS (TLR4) 0.1 ug/mL,0.866
O=c1ccoc2cc(O)ccc12,IRF Lucia reporter activity,[2]; [5],0.973
O=c1ccoc2cc(O)ccc12 (library stock concentration (final ~1000-fold dilution): 10 mM),IRF Lucia reporter activity,[1]; [4],0.899
same,IRF Lucia reporter activity,[1]; agonist: LPS (TLR4) 0.1 ug/mL,0.164
CNC(=NC#N)NCCSCc1nc[nH]c1C,IRF Lucia reporter activity,[2]; [5],0.78
CNC(=NC#N)NCCSCc1nc[nH]c1C (library stock concentration (final ~1000-fold dilution): 10 mM),IRF Lucia reporter activity,[1]; [4],1.1
same,IRF Lucia reporter activity,[1]; agonist: LPS (TLR4) 0.1 ug/mL,0.927
CC(C)Cc1ccc([C@@H](C)C(=O)O)cc1 (library stock concentration (final ~1000-fold dilution): 10 mM),IRF Lucia reporter activity,[1]; [4],0.953
same,IRF Lucia reporter activity,[1]; agonist: LPS (TLR4) 0.1 ug/mL,1.08
O=C1C[C@@H](c2ccc(O)c(O)c2)Oc2cc(O)cc(O)c21 (library stock concentration (final ~1000-fold dilution): 10 mM),IRF Lucia reporter activity,[1]; [4],0.101
same,IRF Lucia reporter activity,[1]; agonist: LPS (TLR4) 0.1 ug/mL,1.01
CS(=O)(=O)O.O=C(NC1CCN(CCCCC2(C(=O)NCC(F)(F)F)c3ccccc3-c3ccccc32)CC1)c1ccccc1-c1ccc(C(F)(F)F)cc1 (library stock concentration (final ~1000-fold dilution): 10 mM),IRF Lucia reporter activity,[3]; [4],0.0237
same,IRF Lucia reporter activity,[3]; agonist: LPS (TLR4) 0.1 ug/mL,0.0947
O=C(/C=C/c1cncc(F)c1)c1c(-c2ccccc2)c2cc(Cl)ccc2[nH]c1=O (library stock concentration (final ~1000-fold dilution): 10 mM),IRF Lucia reporter activity,[3]; [4],0.00558
same,IRF Lucia reporter activity,[3]; agonist: LPS (TLR4) 0.1 ug/mL,0.0118
CC1COCCN1c1cc(-c2ccnn2C)c2ccnc(-c3ccn[nH]3)c2n1.Cl (centres undefined) (library stock concentration (final ~1000-fold dilution): 10 mM),IRF Lucia reporter activity,[1]; [4],0.164
same,IRF Lucia reporter activity,[1]; agonist: LPS (TLR4) 0.1 ug/mL,0.65
CCNC(=O)[C@]12CCC(C)(C)C[C@H]1[C@H]1C(=O)C=C3[C@@]4(C)C=C(C#N)C(=O)C(C)(C)[C@@H]4CC[C@@]3(C)[C@]1(C)CC2 (library stock concentration (final ~1000-fold dilution): 10 mM),IRF Lucia reporter activity,[1]; [4],0.00792
same,IRF Lucia reporter activity,[1]; agonist: LPS (TLR4) 0.1 ug/mL,0.0127
COc1ccccc1Nc1nc(-c2sc(NC(C)=O)nc2C)cs1,IRF Lucia reporter activity,[2]; [5],0.515
COc1ccccc1Nc1nc(-c2sc(NC(C)=O)nc2C)cs1 (library stock concentration (final ~1000-fold dilution): 10 mM),IRF Lucia reporter activity,[1]; [4],0.217
same,IRF Lucia reporter activity,[1]; agonist: LPS (TLR4) 0.1 ug/mL,0.684
CCCC1CC(C(=O)NC(C(C)Cl)C2OC(SC)C(OP(=O)(O)O)C(O)C2O)N(C)C1 (centres undefined) (library stock concentration (final ~1000-fold dilution): 10 mM water),IRF Lucia reporter activity,[1]; [4],1.23
same,IRF Lucia reporter activity,[1]; agonist: LPS (TLR4) 0.1 ug/mL,0.95
CCCC1CC(C(=O)NC(C(C)Cl)C2OC(SC)C(OP(=O)(O)O)C(O)C2O)N(C)C1 (centres undefined),IRF Lucia reporter activity,[2]; [7],1.42
C#Cc1cccc(Nc2ncnc3cc(OCCOC)c(OCCOC)cc23)c1 (library stock concentration (final ~1000-fold dilution): 10 mM),IRF Lucia reporter activity,[1]; [4],0.0457
same,IRF Lucia reporter activity,[1]; agonist: LPS (TLR4) 0.1 ug/mL,0.382
COc1ccc(Cn2ccc3ccc(C(=O)NO)cc32)cc1 (library stock concentration (final ~1000-fold dilution): 10 mM),IRF Lucia reporter activity,[1]; [4],0.242
same,IRF Lucia reporter activity,[1]; agonist: LPS (TLR4) 0.1 ug/mL,0.899
COc1ccc(Cn2ccc3ccc(C(=O)NO)cc32)cc1,IRF Lucia reporter activity,[2]; [5],1.03
